Laboratory results from PubChem BioAssay AID588453 (National Center for Advancing Translational Sciences (NCATS), 2011).
The campaign covered roughly 390,000 compounds. About 4,000 (1%) were called active. Inconclusive means that the source gave no clear call. Such entries were picked first, then a sample of the others. The call rests on the fitted dose curve; in most records, active means well fitted inhibition curve with a large enough effect; inconclusive means small, poorly fitted or top-dose-only effect; inactive means no such curve, though single readings can be large or run the other way. A potency beside an inconclusive call is a rough fit, not a confirmed value.

The compounds below were run against Thioredoxin reductase 1, cytoplasmic (Rattus norvegicus) (UniProt O89049) (assay: qHTS Assay for Inhibitors of Mammalian Selenoprotein Thioredoxin Reductase 1 (TrxR1): qHTS). Conditions: recombinant rTrxR1, NADPH fluorescence consumption, selenite substrate; series mostly up to 114 µM; activity change, negative = inhibition: at the top concentration.
Sequence of UniProt O89049 (O89049 whole entry, looked up): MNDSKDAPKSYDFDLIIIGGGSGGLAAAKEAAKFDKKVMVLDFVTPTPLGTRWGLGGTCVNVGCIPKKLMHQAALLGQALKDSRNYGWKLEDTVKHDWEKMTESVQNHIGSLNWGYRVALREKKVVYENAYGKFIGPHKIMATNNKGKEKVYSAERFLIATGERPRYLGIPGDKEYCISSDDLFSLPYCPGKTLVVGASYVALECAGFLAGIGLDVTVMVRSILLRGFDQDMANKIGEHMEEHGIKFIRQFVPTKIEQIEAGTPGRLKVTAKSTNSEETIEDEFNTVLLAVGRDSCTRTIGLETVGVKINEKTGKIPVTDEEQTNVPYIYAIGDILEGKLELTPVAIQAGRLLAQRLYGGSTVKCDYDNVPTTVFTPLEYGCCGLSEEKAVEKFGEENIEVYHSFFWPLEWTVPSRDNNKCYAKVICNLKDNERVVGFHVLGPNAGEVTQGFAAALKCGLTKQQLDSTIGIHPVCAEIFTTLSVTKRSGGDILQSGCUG
Method in brief: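 Rat TrxR1 (90 nM in the dispensed reagent) was pre-reduced with 400 uM NADPH for 5 min at room temperature, then incubated with compound for 15 min. After 400 uM selenite was added, NADPH fluorescence (Ex 340/Em 450 nm) was followed for 8 min.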
Further: nearly all actives have a fitted effect of over 65% in size.
On the % scale 0 is the no-effect control and ±100 the full control effect; potency means the concentration at half of the fitted maximal effect; tags describe the fitted curve by direction and shape.

Compound | Potency | activity change, negative = inhibition
CCOc1ccccc1NC(=O)CN1C(=O)COc2ccc(S(=O)(=O)N3CCOCC3)cc21 | inconclusive: 100 µM [inhibitor, single point] | –
COc1ccc(NC(=O)CN(C)C(=O)c2sc3ccccc3c2Cl)cc1 | – | inactive: -5.8%
COc1nc(C#N)nc(N(C)C)n1 | inconclusive: 70.8 µM [inhibitor, partial curve] | –
O=S(=O)(c1ccc(F)c(F)c1F)N1CCN(c2ncnc3sccc23)CC1 | – | inactive: -21.3% [at 11.4 µM]
COc1ccc(-c2ccc(CCC(=O)O)n2CC(C)C)cc1 | inconclusive: 10 µM [inhibitor, partial curve] | –
COc1ccc(Nc2nnc(SCc3cc(=O)n4ccsc4n3)s2)cc1 | – | inactive: -0.25%
O=Cc1ccc(N2CCCC2)c(F)c1 | – | inactive: -28.1%
O=C(CC(c1ccccc1)(c1ccccc1)c1ccccc1)N[C@@H](Cc1ccccc1)C(=O)O | – | inactive: 11.4%
Cc1csc(CN(C)C(=O)CC2C(=O)NCCN2Cc2ccc(F)cc2Cl)n1 (stereo not drawn) | inconclusive: 20 µM [inhibitor, full curve] | –
O=C(CCl)Nc1cccc(S(=O)(=O)N2CCCCCC2)c1 | inconclusive: 50.1 µM [inhibitor, partial curve, poor fit] | –
CCOC(=O)c1c(C)n(-c2ccc(C)cc2)c2c(C(C(C)=O)C(=O)O)c(Br)c(O)c(O)c12 (stereo not drawn) | inconclusive: 35.5 µM [inhibitor, single point] | –
O=c1c2c3c(sc2n2cnnc2n1-c1ccccc1)N(Cc1ccccc1)CCC3 | inconclusive: 56.2 µM [inhibitor, partial curve] | –
COc1cc(OC)cc(-c2n[nH]c(=S)n2-c2ccc3c(c2)OCO3)c1 | inconclusive: 56.2 µM [inhibitor, single point] | –
CS(=O)(=O)Nc1cccc(C2=NN(C(=O)c3ccco3)C(c3cccs3)C2)c1 (stereo not drawn) | inconclusive: 44.7 µM [inhibitor, partial curve, poor fit] | –
CCN(CC)C(=O)c1cc(-c2ccc3c(c2)OCO3)on1 | inconclusive: 89.1 µM [inhibitor, single point] | –
c1ccc2c(CCc3c[nH]c4ccccc34)ccnc2c1 | inconclusive: 20 µM [inhibitor, full curve] | –
O=C(N/N=C/c1c(O)n(-c2ccccc2Cl)c(=O)c2ccccc12)c1cccnc1 | – | inactive: -16.7%
CC1=NOC(=O)/C1=C\c1ccc2c(c1)OCO2 | inconclusive: 17.8 µM [inhibitor, partial curve, poor fit] | –
O=C(c1cc2ccccc2oc1=O)N1CCN(c2ccc(Cl)cc2)CC1 | – | inactive: 15.2%
COc1ccc(CN2CCN(CCSc3ccc(C)cc3)CC2)c(OC)c1OC | – | inactive: 34.7%
O=C(/C=C\c1ccc2c(c1)OCO2)CC1(O)C(=O)Nc2ccccc21 (stereo not drawn) | inconclusive: 10 µM [inhibitor, partial curve, poor fit] | –
CC(C)(C)n1nc2c(c1NC(=O)COc1ccc3ccccc3c1)CS(=O)C2 (stereo not drawn) | inconclusive: 28.2 µM [inhibitor, full curve] | –

Compound | Potency | activity change, negative = inhibition
O=c1c2c3c(sc2[nH]c(=S)n1Cc1ccco1)CCC3 | inconclusive: 17.8 µM [inhibitor, partial curve] | –
O=C(O)C1C2C=CC(O2)C1C(=O)Nc1ccc(S(=O)(=O)Nc2ccccc2)cc1 (stereo not drawn) | inconclusive: 8.91 µM [inhibitor, partial curve, poor fit] | –
O=C(CC(c1ccc(F)cc1)c1ccco1)N1CCOCC1 (stereo not drawn) | inconclusive: 50.1 µM [inhibitor, single point] | –
O=C(Nc1ccc(Br)cc1)c1ccc(F)c(S(=O)(=O)NCc2cccs2)c1 | – | inactive: -6.16%
S=c1[nH]nc(C2CCCCC2)n1/N=C/c1ccccc1Cl | – | inactive: 10.1% [at 57.1 µM]
O=C(C=Cc1ccc(Cl)s1)c1ccc(Cl)s1 | inconclusive: 50.1 µM [inhibitor, partial curve, poor fit] | –
COc1ccc(/C=C2\Sc3ccc(C(=O)NCc4cccnc4)cc3N(C)C2=O)cc1OC | inconclusive: 79.4 µM [inhibitor, partial curve, poor fit] | –
CCCCN(CCCC)c1ccc(/C=C2\C=Cc3ccccc32)cc1 | inconclusive: 63.1 µM [inhibitor, partial curve, poor fit] | –
COc1ccc(CNc2nc(SCc3ccc(Cl)cc3)nc3ccccc23)cc1 | – | inactive: 8.5% [at 57.1 µM]
Cc1cc(C)c[n+](-c2[nH]c(=O)sc2/C=N/NC([S-])=Nc2ccccc2)c1 | inconclusive: 31.6 µM [inhibitor, partial curve, poor fit] | –
CC(Oc1ccc2cc(-c3ccccc3)c(=O)oc2c1)C(=O)NCC1CCC(C(=O)O)CC1 (stereo not drawn) | inconclusive: 10 µM [inhibitor, full curve, poor fit] | –
Cc1cccc(-c2nc(CS(=O)CC(=O)NCC3CCCO3)c(C)o2)c1 (stereo not drawn) | inconclusive: 17.8 µM [inhibitor, partial curve] | –
Cc1ccc(NC(=S)NNC(=O)c2ccc(N3CCOCC3)c([N+](=O)[O-])c2)cc1C | inconclusive: 35.5 µM [inhibitor, full curve] | –
CN1CCN(C2(CNC(=O)c3ccc(C(C)(C)C)cc3)CCCCC2)CC1 | – | inactive: 4.46%
CCCCCCC(C)n1[nH]c(=O)cc1N (stereo not drawn) | inconclusive: 11.2 µM [inhibitor, full curve] | –
CCOC(=O)C1=C(COC(=O)/C=C/c2ccc(OC)c(OC)c2)NC(=O)NC1C (stereo not drawn) | inconclusive: 70.8 µM [inhibitor, partial curve, poor fit] | –
O=C(NCc1ccccc1)c1ccc(-c2ccc(F)cc2)o1 | inconclusive: 89.1 µM [inhibitor, single point] | –
Cc1nc(S/C(=C/c2ccc(-c3ccc(Cl)cc3)o2)C(=O)O)n[nH]1 | inconclusive: 3.16 µM [inhibitor, single point] | –
O=C(CSc1nc2[nH]ncc2c(=O)[nH]1)NCc1ccc(F)cc1 | inconclusive: 89.1 µM [inhibitor, single point] | –
O=C(c1cc([N+](=O)[O-])ccc1N1CCCCC1)N1CCc2ccccc21 | – | inactive: 3.78%
O=[N+]([O-])c1cc(/C=N/NC(=S)Nc2ccccc2Cl)ccc1Cl | – | inactive: 21.8% [at 57.1 µM]
